In assay [1] the target is T1, Flag-eIF2A (Δ462–501) (human) (UniProt Q9BY44).
T1 sequence: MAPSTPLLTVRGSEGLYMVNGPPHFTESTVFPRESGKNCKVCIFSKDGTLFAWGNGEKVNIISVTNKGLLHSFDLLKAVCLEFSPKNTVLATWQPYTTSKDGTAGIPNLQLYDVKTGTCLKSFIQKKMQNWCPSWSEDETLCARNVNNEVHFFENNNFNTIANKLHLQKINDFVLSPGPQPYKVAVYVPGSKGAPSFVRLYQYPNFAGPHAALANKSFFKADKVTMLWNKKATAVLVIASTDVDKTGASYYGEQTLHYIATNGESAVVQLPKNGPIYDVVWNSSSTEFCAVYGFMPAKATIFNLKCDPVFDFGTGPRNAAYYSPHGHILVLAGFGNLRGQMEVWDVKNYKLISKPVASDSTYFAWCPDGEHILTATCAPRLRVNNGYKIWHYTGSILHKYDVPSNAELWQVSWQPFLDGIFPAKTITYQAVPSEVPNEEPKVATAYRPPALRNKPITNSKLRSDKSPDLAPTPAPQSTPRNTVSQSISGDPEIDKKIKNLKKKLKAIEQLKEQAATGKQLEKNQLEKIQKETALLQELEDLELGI
Nature of the assay: co-IP; lysates of 293FT cells expressing Flag-tagged eIF2A derivatives; anti-Flag M2 affinity gel, 4 °C, 2 h, buffer A (0.1% NP-40, 40 mM HEPES–KOH pH 7.5, 100 mM KCl, 1 mM EDTA); endogenous eIF5B detected by western blotting.

By UniProt entry, the sequences of proteins in these tests, tags left out.
UniProt P11940: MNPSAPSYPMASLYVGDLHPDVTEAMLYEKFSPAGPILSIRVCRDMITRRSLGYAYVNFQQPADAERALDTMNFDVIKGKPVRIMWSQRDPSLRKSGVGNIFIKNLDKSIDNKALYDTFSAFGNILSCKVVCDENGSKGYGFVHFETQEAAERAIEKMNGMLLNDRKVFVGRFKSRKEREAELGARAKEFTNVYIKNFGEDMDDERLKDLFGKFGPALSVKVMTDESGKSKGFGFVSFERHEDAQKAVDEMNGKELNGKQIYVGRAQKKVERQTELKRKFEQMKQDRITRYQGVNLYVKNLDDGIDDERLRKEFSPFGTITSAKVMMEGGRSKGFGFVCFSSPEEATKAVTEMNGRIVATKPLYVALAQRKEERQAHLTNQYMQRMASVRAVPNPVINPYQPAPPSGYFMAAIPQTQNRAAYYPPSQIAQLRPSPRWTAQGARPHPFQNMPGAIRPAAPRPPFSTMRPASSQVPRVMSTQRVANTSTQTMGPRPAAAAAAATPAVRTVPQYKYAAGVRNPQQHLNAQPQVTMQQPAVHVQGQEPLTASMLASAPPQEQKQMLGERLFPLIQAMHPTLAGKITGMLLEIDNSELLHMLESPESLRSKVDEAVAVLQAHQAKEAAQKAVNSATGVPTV

In assay [2] the target is T2, Flag-tagged eIF2A (1–480) (human) (UniProt Q9BY44).
T2 sequence: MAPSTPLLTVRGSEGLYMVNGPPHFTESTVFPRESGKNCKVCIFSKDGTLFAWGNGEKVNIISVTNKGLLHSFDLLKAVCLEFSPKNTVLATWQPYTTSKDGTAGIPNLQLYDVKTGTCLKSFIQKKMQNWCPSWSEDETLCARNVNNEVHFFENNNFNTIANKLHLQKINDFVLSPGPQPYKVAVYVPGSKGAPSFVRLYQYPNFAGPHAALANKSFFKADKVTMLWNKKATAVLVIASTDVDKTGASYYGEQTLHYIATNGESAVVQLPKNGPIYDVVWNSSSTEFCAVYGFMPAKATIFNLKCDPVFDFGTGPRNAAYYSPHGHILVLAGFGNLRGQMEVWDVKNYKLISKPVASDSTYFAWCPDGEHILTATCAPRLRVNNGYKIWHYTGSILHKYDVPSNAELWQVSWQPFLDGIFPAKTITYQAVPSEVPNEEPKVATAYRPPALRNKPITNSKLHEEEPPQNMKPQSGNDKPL
Described as above.

Assay [3] addresses T3, Flag-tagged eIF2A (1–501) (human) (UniProt Q9BY44).
T3 sequence: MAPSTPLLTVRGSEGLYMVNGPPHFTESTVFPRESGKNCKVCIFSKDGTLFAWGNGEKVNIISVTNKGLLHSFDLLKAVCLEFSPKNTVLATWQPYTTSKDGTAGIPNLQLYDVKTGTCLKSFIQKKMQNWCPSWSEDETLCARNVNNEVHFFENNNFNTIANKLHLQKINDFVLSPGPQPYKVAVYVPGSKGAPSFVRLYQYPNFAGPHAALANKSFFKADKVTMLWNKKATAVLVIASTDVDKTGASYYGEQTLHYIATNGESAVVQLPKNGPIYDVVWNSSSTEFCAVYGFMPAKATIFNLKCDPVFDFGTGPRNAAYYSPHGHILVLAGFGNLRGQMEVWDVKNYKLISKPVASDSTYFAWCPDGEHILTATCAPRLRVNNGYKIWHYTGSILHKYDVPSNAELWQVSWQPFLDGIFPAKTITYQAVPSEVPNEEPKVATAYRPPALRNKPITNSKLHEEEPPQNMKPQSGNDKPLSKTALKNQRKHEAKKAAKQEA
The assay is described as above.

Assay [4] deals with T4, Flag-tagged eIF2A (462–585) (human) (UniProt Q9BY44).
T4 sequence: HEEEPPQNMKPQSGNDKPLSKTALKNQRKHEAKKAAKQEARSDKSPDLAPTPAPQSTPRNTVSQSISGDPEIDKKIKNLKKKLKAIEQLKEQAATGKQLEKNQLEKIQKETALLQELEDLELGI
The assay is described as above.

Assay [5] addresses T5, Flag-tagged full-length eIF2A (residues 1–585) (human) (UniProt Q9BY44).
T5 sequence: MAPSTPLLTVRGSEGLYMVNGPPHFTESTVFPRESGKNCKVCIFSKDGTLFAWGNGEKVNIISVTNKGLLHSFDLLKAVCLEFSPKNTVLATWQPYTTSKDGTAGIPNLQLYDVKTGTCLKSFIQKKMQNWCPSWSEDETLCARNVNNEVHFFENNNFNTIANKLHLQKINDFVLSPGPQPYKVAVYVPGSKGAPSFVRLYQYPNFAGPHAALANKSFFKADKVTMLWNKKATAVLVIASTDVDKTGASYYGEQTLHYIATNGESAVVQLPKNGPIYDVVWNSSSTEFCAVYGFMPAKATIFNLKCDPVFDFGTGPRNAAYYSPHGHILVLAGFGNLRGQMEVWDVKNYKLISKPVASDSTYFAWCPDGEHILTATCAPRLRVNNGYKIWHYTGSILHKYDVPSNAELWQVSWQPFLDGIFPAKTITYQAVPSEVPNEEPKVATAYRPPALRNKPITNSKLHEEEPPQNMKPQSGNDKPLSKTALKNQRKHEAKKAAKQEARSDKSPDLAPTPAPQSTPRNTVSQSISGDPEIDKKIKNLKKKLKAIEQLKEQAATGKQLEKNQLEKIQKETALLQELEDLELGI
Described as above.

Another assay has as its target GST–PABP (UniProt P11940). Briefly: pull-down; GST pull-down with recombinant proteins purified from E. coli extracts; GST fusions as bait, His–eIF2A detected by western blotting with anti-His; both purified. Background: In western blotting, separated proteins are transferred to a membrane and probed.

Data on two molecules can be found in paper PMC6208778, “eIF2A, an initiator tRNA carrier refractory to eIF2α kinases, functions synergistically with eIF5B” (Cellular and Molecular Life Sciences: CMLS, 2018).

Results are given in words; binding and its absence hold for the method and conditions named. For part of these data: Binding seen in cells or lysates may run through a third protein. Some results given as binding are weak or reduced against the parent protein; the word gives no strength. Tags and fused reporters may be left off the sequences shown.

B1: endogenous eIF5B (protein, UniProt O60841 1-1220)
chain: MGKKQKNKSEDSTKDDIDLDALAAEIEGAGAAKEQEPQKSKGKKKKEKKKQDFDEDDILKELEELSLEAQGIKADRETVAVKPTENNEEEFTSKDKKKKGQKGKKQSFDDNDSEELEDKDSKSKKTAKPKVEMYSGSDDDDDFNKLPKKAKGKAQKSNKKWDGSEEDEDNSKKIKERSRINSSGESGDESDEFLQSRKGQKKNQKNKPGPNIESGNEDDDASFKIKTVAQKKAEKKERERKKRDEEKAKLRKLKEKEELETGKKDQSKQKESQRKFEEETVKSKVTVDTGVIPASEEKAETPTAAEDDNEGDKKKKDKKKKKGEKEEKEKEKKKGPSKATVKAMQEALAKLKEEEERQKREEEERIKRLEELEAKRKEEERLEQEKRERKKQKEKERKERLKKEGKLLTKSQREARARAEATLKLLQAQGVEVPSKDSLPKKRPIYEDKKRKKIPQQLESKEVSESMELCAAVEVMEQGVPEKEETPPPVEPEEEEDTEDAGLDDWEAMASDEETEKVEGNKVHIEVKENPEEEEEEEEEEEEDEESEEEEEEEGESEGSEGDEEDEKVSDEKDSGKTLDKKPSKEMSSDSEYDSDDDRTKEERAYDKAKRRIEKRRLEHSKNVNTEKLRAPIICVLGHVDTGKTKILDKLRHTHVQDGEAGGITQQIGATNVPLEAINEQTKMIKNFDRENVRIPGMLIIDTPGHESFSNLRNRGSSLCDIAILVVDIMHGLEPQTIESINLLKSKKCPFIVALNKIDRLYDWKKSPDSDVAATLKKQKKNTKDEFEERAKAIIVEFAQQGLNAALFYENKDPRTFVSLVPTSAHTGDGMGSLIYLLVELTQTMLSKRLAHCEELRAQVMEVKALPGMGTTIDVILINGRLKEGDTIIVPGVEGPIVTQIRGLLLPPPMKELRVKNQYEKHKEVEAAQGVKILGKDLEKTLAGLPLLVAYKEDEIPVLKDELIHELKQTLNAIKLEEKGVYVQASTLGSLEALLEFLKTSEVPYAGINIGPVHKKDVMKASVMLEHDPQYAVILAFDVRIERDAQEMADSLGVRIFSAEIIYHLFDAFTKYRQDYKKQKQEEFKHIAVFPCKIKILPQYIFNSRDPIVMGVTVEAGQVKQGTPMCVPSKNFVDIGIVTSIEINHKQVDVAKKGQEVCVKIEPIPGESPKMFGRHFEATDILVSKISRQSIDALKDWFRDEMQKSDWQLIVELKKVFEII
As to B1, the binding entry in assay [1] is recorded as “no binding”; in assay [2], “no binding”; in assay [3], “binds”; in assay [4] it was “binds”; in assay [5], “binds”.

B2: His-tagged eIF2A (natural protein, human, UniProt Q9BY44 1-585, looked up)
chain: MAPSTPLLTVRGSEGLYMVNGPPHFTESTVFPRESGKNCKVCIFSKDGTLFAWGNGEKVNIISVTNKGLLHSFDLLKAVCLEFSPKNTVLATWQPYTTSKDGTAGIPNLQLYDVKTGTCLKSFIQKKMQNWCPSWSEDETLCARNVNNEVHFFENNNFNTIANKLHLQKINDFVLSPGPQPYKVAVYVPGSKGAPSFVRLYQYPNFAGPHAALANKSFFKADKVTMLWNKKATAVLVIASTDVDKTGASYYGEQTLHYIATNGESAVVQLPKNGPIYDVVWNSSSTEFCAVYGFMPAKATIFNLKCDPVFDFGTGPRNAAYYSPHGHILVLAGFGNLRGQMEVWDVKNYKLISKPVASDSTYFAWCPDGEHILTATCAPRLRVNNGYKIWHYTGSILHKYDVPSNAELWQVSWQPFLDGIFPAKTITYQAVPSEVPNEEPKVATAYRPPALRNKPITNSKLHEEEPPQNMKPQSGNDKPLSKTALKNQRKHEAKKAAKQEARSDKSPDLAPTPAPQSTPRNTVSQSISGDPEIDKKIKNLKKKLKAIEQLKEQAATGKQLEKNQLEKIQKETALLQELEDLELGI
notes: eukaryotic initiation factor 2A (eIF2A); also called His–eIF2A; eukaryotic initiation factor 2A; source: E. coli M15 (plasmid pQE31/His–eIF2A), purified
As to B2, the binding result with GST–PABP is reported as “no binding”.
